# From the supplement of paper PMC10300432
# Recombinant human monoclonal antibodies (heavy:light variable regions). ELISA EC50 on the named antigen, from 10 µg/ml down; IC50 against spike pseudovirus on HT1080-ACE2 cells, 48 h; lower = stronger. Calls: IC50 above 1,000 ng/ml = non-neutralizing; EC50 above 1,000 ng/ml = non-binder.
# B1: C5314 (protein)
# chain 1: EVQLVQSGPEVKKPGESLKISCKGSGYSFSSYWIGWVRQMPGKGLEWMGIIYPADSDTRYRPSFQGQVTISADKSITTAYLQWSSLKASDTGMYYCASRAAADTFDIWGQGTMVTVSS
# chain 2: QSVLTQPPSASGTPGQRVTISCSGSSSNIGSNPVSWYQQVPGTAPKVLVYLNNQRPSGVPDRFSGSKSGTSASLAISGLQSEDEADYYCAAWDDSLNGPWVFGGGTKLTVL
# B2: C5306 (protein)
# chain 1: QVQLVQSGAEVKKPGASVKVSCKASGYTFTSYGITWVRQAPGQGLEWLGWISAYNGNTNYARKLQGRVTMTTDTSTSTAYMEVRSLRSDDTAVYYCARGMAVAGTAPPDYWGQGTLVTVSS
# chain 2: QSVLTQPPSASGTPGQRVTISCSGSSSNIGSNFVYWYQQLPGTAPKLLIYSSNQRPSGVPDRFSGSKSGTSASLAITGLRSEDEADYYCAAWDDSLSGYVVFGGGTKLTVL
# B3: C5059 (protein)
# chain 1: EVQLVEAGGGLIQPGGSLRLSCAASEITVSSNYMSWVRQAPGKGLEWVSLIYSGGSTYYADSVKGRFTISRDSSKNTLYLQMNKLRVDDTAVYFCARVLPFGDYYFDYWGQGTLVTVSS
# chain 2: QSVLTQPPSVSAAPGQKVTISCSGGGSNIGNMYISWYQQLPGTAPKLLIYDNNKRPSGIPDRFSGSKSGTSATLVITGLQTGDEADYYCGTWDDSLSVWVFGGGTKLTVL
# B4: C5309 (protein)
# chain 1: QLQLQESGPGLVKPSETLSLTCSVSGVSVRSHNFYWGWIRQPPGKGLEWIGSASYSGSTHYNPSLKSRVTISVDTSKSQFSLKLSSVTAADTAVYYCARQTYYYDRSGRPHHDLDHWGQGTLVIVSS
# chain 2: DIQMTQSPSSLSASVGDRVTITCQASQDISNYLKWYQQKPGKAPKLLIYDASNLETGVPSRFSGSGSGTDFTFTISSLQPEDIATYYCQQFDNLPLTFGGGTKVEI
# B5: C5313 (protein)
# chain 1: QVQLQESGPGLVKPSQTLSLTCTVSGRSINSGGYYWSWIRQHPGKGLEWIGYIYYSGSTYYNPSLKSRVTISVDTSKNQFSLKLSSVTAADTAVYYCAKSWVPYYFDYWGQGTLVTVSS
# chain 2: QSVLTQPPSVSGAPGQRVTISCTGSSSNIGAGFDVHWYQQLPGTAPKLLIYGNNNRPSGVPDRFSGSKSGTSASLAITGLQAEDEADYYCQSYDSNLSSPVVFGGGTKLTVL
# B6: C5062 (protein)
# chain 1: QVQLVQSGAEVKRPGSSVKVSCKASGGTFSNYAISWVRQAPGPALEWMGGIIPMFGSAHYAQKFQGRVTITADESTSTAYMELRSLRSEDTAVYYCATRRARRVPAGGGGFHYYGLDVWGQGTTVTVSS
# chain 2: DIVMTQSPLSLPVTAGEPASISCRSSQSLLHSNGYNYLDWYLQKPGQSPQLLIYLGSNRASGVPDRFSGSGSDTDFTLNISRVAAEDVGVYYCMQALQTPMYTFGQGTKLEIK
# B7: C5060 (protein)
# chain 1: QVQLVESGGGVVQPGRSLRLSCAASGFTFSNYVMHWVRQAPGKGLEWVAVIIYDGSIKYYADSVKGRFTVSRDNSKNTLFLQMNSLRPEDTALYYCAKGGPWSSSTPGIDYWGQGTLVTVSS
# chain 2: DIQMTQSPSSLSASAGDRVTVTCQASQDISHYLNWYQQKPGKAPKLLIYDASNLETGVPSRFSGAGSGTHFTFTITNLQPEDFATYYCQQYSNLRLTFGGGTKVEIK
# B8: C5312 (protein)
# chain 1: QVQLVQSGAEVKKPGSSVKVSCRASGGTFSNSAISWVRQAPGQGLEWMGGIIPFFGAAKNAQKFQGRVTITTDESTSITYMELSSLRSDDTAMYYCASGGYFDNVWGTFVARYDFWGQGTLVTVSS
# chain 2: QSALTQPASVSGSPGQSITISCTGISSDVGGYNYVSWYQQHPGNAPQLIIYDVSNRPSGVSNRFSGSKSGDTASLTISGLQADDEADYFCSSYTSSTTFYVFGTGTKVTVL
# Tests used:
# [1] = target: SARS-CoV-2 Omicron BA.1 spike pseudovirus; experiment: pseudovirus neutralization IC50; higher = weaker neutralization
# Method: (§1)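 Single-round luciferase reporter pseudovirus mixed with antibody dilutions and put on HT1080-ACE2 clone 14 cells for 48 h; signal relative to no-antibody wells, four-parameter fit.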
# [2] = target: SARS-CoV-2 Omicron BA.4/5 spike pseudovirus; experiment: as above
# Method: as §1
# [3] = target: SARS-CoV-2 Wuhan-Hu-1 spike pseudovirus; experiment: as above
# Method: as §1
# [4] = target: SARS-CoV-2 Wuhan-Hu-1 spike receptor-binding domain; experiment: ELISA binding EC50; higher = weaker binding; ELISA of recombinant human antibody on coated antigen, from 10 µg/ml in fourfold dilutions; four-parameter fit.
Binder,pseudovirus neutralization IC50 [1] [µg/mL],pseudovirus neutralization IC50 [2] [µg/mL],pseudovirus neutralization IC50 [3] [µg/mL],ELISA binding EC50 [4] [µg/mL]
B1,0.137,0.279,0.136,0.00424
B2,> 1,> 1,> 1,0.00776
B3,> 1,0.455,0.000658,0.00275
B4,0.0922,0.968,0.00698,0.00387
B5,0.101,> 1,0.611,0.00524
B6,> 1,> 1,> 1,0.0076
B7,> 1,> 1,0.804,0.00482
B8,0.00031,> 1,0.00178,0.00414
